# Measured values from the supplement of paper PMC3334620.
# In all, about 33,000 sequences were measured (“E-score (-0.5 to 0.5)”: median about -0.036, highest 2% from about 0.37 on). The list shows a part of the results.
# Target: T1, Yer064c (UniProt P40041)
# T1 sequence: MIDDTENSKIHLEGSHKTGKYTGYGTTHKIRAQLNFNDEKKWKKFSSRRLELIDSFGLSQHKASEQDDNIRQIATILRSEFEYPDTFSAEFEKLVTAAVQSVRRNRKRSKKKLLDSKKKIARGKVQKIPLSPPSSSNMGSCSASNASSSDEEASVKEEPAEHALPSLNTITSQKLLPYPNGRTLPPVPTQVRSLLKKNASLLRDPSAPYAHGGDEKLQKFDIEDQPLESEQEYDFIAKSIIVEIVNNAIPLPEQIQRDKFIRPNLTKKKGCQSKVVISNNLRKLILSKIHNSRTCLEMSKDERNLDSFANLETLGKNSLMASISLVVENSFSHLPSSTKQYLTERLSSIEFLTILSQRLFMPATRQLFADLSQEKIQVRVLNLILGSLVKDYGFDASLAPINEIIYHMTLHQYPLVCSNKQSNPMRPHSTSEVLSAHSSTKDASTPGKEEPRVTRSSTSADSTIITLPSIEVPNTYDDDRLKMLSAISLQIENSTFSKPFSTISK
# Assay: PBM E-score (8-mer binding enrichment) (E-score (-0.5 to 0.5)); higher = stronger / more preferred TF binding; most listed sequences are background and not binding sites
# Conditions: protein concentration: 200 nM; construct: GST-full length
# Outline: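 For each ungapped eight-base word taken together with its reverse complement, the Universal PBM Analysis Suite assigned an E-score. Binding data came from GST-tagged yeast transcription factors, applied at about 100-200 nM, on universal all-10-mer Agilent arrays made double-stranded by primer extension. Fluorescent anti-GST marked bound protein, and scans were normalised with masliner.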
row,Sequence,PBM E-score
1,ACCGTAGA,-0.065
2,CGTACACG,-0.0262
3,AAGGGCGG,-0.204
4,GACATTTA,-0.169
5,CATCATCA,0.161
6,AGCACTCA,0.119
7,AAAGAAGA,0.045
8,ACGGTGGC,-0.155
9,CGTTGGAC,-0.0379
10,AACGCAGG,-0.101
11,CCGGTATC,-0.291
12,ACCCGGTG,-0.142
13,CAAATGGC,-0.167
14,ACGATGAA,0.0715
15,AATTCCAT,-0.0881
16,CGGTCTGC,-0.145
17,CGACGAAA,0.0295
18,GATAACCC,-0.162
19,ATTGTCCC,-0.15
20,GACTTGGA,0.0722
21,AGGGTTAA,0.104
22,CTGCTATC,-0.196
23,GGTCTTGA,0.0234
24,CTGAGGAA,-0.17
25,AATTCGGG,-0.288

row,Sequence,PBM E-score
1,AAAGCCAG,-0.0319
2,ACATTTGC,-0.169
3,ACAGAATG,0.0946
4,AAAACGCA,-0.0665
5,GGCCGCTA,-0.253
6,ACAACCCG,0.0664
7,AATGGACC,0.0237
8,ATAGTATC,0.00332
9,ACCTGATG,0.0351
10,AGCAAGTA,0.0755
11,GAGAATAC,0.0219
12,CATGACAA,-0.00212
13,ACGCCATA,-0.239
14,CCTCTAGC,-0.268
15,CAGCCAGG,-0.0796
16,CCCCGTCC,-0.321
17,AAGCCGCG,-0.227
18,CCGCATGA,0.247
19,AACACGTG,0.191
20,ACTGCCAG,0.0823
21,GGTCTTAA,-0.0271
22,ATACCCAT,0.318
23,CTTTGTAC,0.00464
24,TCTTGAAA,0.273
25,CTAGGCCA,-0.143

row,Sequence,PBM E-score
1,ACACAAGC,0.0383
2,TGACTTAA,0.435
3,AAATTCAA,-0.0759
4,ACACTACT,0.0763
5,CGAATCCC,-0.125
6,CATCCTAA,0.0625
7,AATTTGGG,0.145
8,AGTGCCTA,0.00656
9,ACTGCGAG,0.22
10,AGAGCGCA,-0.0588
11,AACTCGAC,0.0909
12,ATCCCAAT,-0.143
13,AGTCAATC,0.426
14,AAGAGGGT,-0.129
15,ACAACTGT,-0.0125
16,CTAGCATC,-0.0958
17,CGGGACGC,-0.282
18,AAGAGCTC,-0.0923
19,ACCCGATC,-0.189
20,CACCTAGG,0.0188
21,AAGTGCAG,0.0456
22,CTGAGCCC,0.0308
23,ATCTCCTA,-0.17
24,CTCTCTAA,0.0149
25,AGGTCTCC,-0.157

row,Sequence,PBM E-score
1,CAATAGAA,-0.108
2,ACTACACC,0.146
3,ACTACGGG,-0.132
4,ACGTGCAC,-0.0468
5,GCCTGAGC,-0.233
6,ATGGGGGG,-0.179
7,GTGGCAAA,-0.157
8,GAGCATTA,0.0612
9,AGGAACGC,-0.37
10,CTTTCGGA,-0.113
11,AACTTTAG,-0.0244
12,CGACATGC,-0.0286
13,AGTTACGA,0.127
14,AGGCGGAC,-0.0508
15,AATACACG,-0.173
16,CGAGGCGA,0.0428
17,AGCCCTCC,-0.29
18,GCTGAAGC,-0.135
19,AAGCTCAA,0.00338
20,CTCTCTTC,-0.0842
21,GATCTTAC,0.0257
22,AGCGAGCG,-0.215
23,GATATTAA,-0.0398
24,GACACGTC,-0.0681
25,CTTCAAGA,0.208

row,Sequence,PBM E-score
1,AGGCTTCG,-0.149
2,GATCTTAA,0.225
3,ACGCTCCG,-0.232
4,ACGAGATC,-0.00279
5,GCACGCGC,-0.262
6,GTTAAGGA,0.128
7,AGTAATTG,0.112
8,ACTGGGCT,-0.181
9,CTTGCCTA,-0.126
10,AGACTGAC,0.299
11,ATGTATAG,0.0799
12,CGCGTCCC,-0.256
13,ATTGCCTA,0.153
14,AGTTCGTC,-0.0236
15,CACCGGCA,-0.166
16,CTGCGTCA,-0.145
17,CTTTGTGA,0.136
18,CCTTCTCA,-0.111
19,AAAGAGTA,0.0885
20,ACCCGGCC,-0.168
21,CGGAAGTC,0.268
22,AGCTTTGA,0.158
23,CCTGAAAG,-0.033
24,GATTGGTA,0.0776
25,AGGCAACG,-0.227

row,Sequence,PBM E-score
1,GACCCCTC,-0.00087
2,GACCACAC,0.00422
3,GCGCGCGC,0.212
4,GGCCCTAC,-0.147
5,CAGCCGGC,-0.218
6,CAGGGTAC,-0.143
7,AACCCGAT,-0.0429
8,AGAAGGCT,-0.246
9,GGGAGTGA,0.0741
10,CTAACCAA,0.145
11,TACGGTAA,-0.0542
12,CAGCGCTA,0.0006
13,CCTGACCC,-0.151
14,CCTCGAAG,-0.185
15,AGGTTATA,-0.29
16,ATAAAGTC,0.284
17,GGCTTCAA,-0.107
18,CCGTAGTA,-0.15
19,GCTGAACA,0.0192
20,ATACTGAT,0.117
21,ACAAAATA,-0.0844
22,CCGAACAG,-0.0474
23,CGTGTAGC,0.0129
24,GATGAATC,0.387
25,ACTCTAAC,0.147

row,Sequence,PBM E-score
1,CTATACTC,0.0859
2,AGCCGCCC,-0.162
3,CTCGCGGC,0.00801
4,AGTCGCAC,0.353
5,AATTCTTG,-0.0156
6,CGATTCCC,0.08
7,AGTGAGTG,0.0771
8,ATCCCTTC,-0.095
9,ACTCTCCA,0.114
10,AACGACGC,-0.169
11,CAACCCGC,0.0525
12,CGCCCAAA,0.0397
13,CGCTGAAC,-0.0322
14,GCCAGTGA,0.128
15,ACATCACC,-0.226
16,CCATAAAA,-0.175
17,ACAATATG,0.00196
18,CACTTACG,0.121
19,AACGCCTG,-0.261
20,AATATATT,0.193
21,CTTGAACC,0.164
22,GACAGCCA,-0.158
